Measurements from patent publication US20250243260A1 (ALPINE IMMUNE SCIENCES, published 2025).
Positions count from the first letter of the chain named. Numbers in names are those of the source. Blank lines part the entries; values can stand above or below the binder they belong to.

Molecular target: T1, human PD-L1 (human, UniProt Q9NZQ7)
T1 construct: whole, on cells; also called SCC152/PD-L1 cells
Assay: flow cytometry, SCC152/PD-L1 cells
Description: Binding affinity to CD28 was determined using primary human T cells which endogenously express CD28. Binding to PD-L1 was determined using SCC152 cells transduced with human PD-L1. Binding to CTLA-4 was measured using Chinese hamster ovary (CHO) cells stably transduced to express human CTLA-4.
For staining and analysis by flow cytometry, 75,000 human T cells, SCC152/PD-L1 cells, or CHO/CTLA-4 cells were plated in 96-well round-bottom plates. Cells were spun down and resuspended in staining buffer (PBS (phosphate buffered saline), 1% BSA (bovine serum albumin), 1 mM EDTA, and 0.1% sodium azide) for 20 minutes to block non-specific binding. Afterwards, cells were centrifuged, stain buffer aspirated, and then resuspended in 50 μL of a 1:5 serial dilution of each CD80-Fc candidate variant starting at 100 nM ending at 0.8 nM. Primary staining was performed on ice for 60 minutes, before washing cells in […] staining buffer three times. PE-conjugated anti-human Fc (Jackson ImmunoResearch, USA) was diluted 1:250 in 50 μL staining buffer and added to cells and incubated another 30 minutes at 4° C. Cells were washed two times in 150 μL stain buffer and then fixed in 2% formaldehyde/PBS for 5 minutes at room temperature. Samples were analyzed CytoFLEX LX flow cytometer (Beckman Coulter, USA). Median Fluorescence Intensity (MFI) was calculated for each cell type using the CytExpert software from Beckman Coulter.

T1 sequence (Q9NZQ7 19-290): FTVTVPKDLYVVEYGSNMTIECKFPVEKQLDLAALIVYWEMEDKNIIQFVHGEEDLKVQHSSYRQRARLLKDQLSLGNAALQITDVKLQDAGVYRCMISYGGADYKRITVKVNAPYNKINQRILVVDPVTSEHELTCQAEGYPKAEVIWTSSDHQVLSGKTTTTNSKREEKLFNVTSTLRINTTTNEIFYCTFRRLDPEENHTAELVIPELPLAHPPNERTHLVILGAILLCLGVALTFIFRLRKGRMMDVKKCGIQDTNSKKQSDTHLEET

Anti-Human Fc (MFI) at 0.8 nM: 669 MFI
Anti-Human Fc (MFI) at 4 nM: 667 MFI
Anti-Human Fc (MFI) at 20 nM: 675 MFI
Anti-Human Fc (MFI) at 100 nM: 796 MFI
fold change vs WT CD80 @20 nM: 1 fold
B1: CD80_223-Fc (Fc fusion)
chain: VIHVTKEVKSVATLSCGHNVSVEELAQTRIYWQKEKKMVLTMMSGDMNIWPEYKNRTIFDITNNLSIMILALRPSDEGTYECVVLKPEKDAFKREHLAEVTLSVKADGSGGGGS[omitted - human IgG4 Fc with S228P (EU numbers)]
notes: also called E10S, V68M, Y87P

Anti-Human Fc (MFI) at 0.8 nM: 771 MFI
Anti-Human Fc (MFI) at 4 nM: 1160 MFI
Anti-Human Fc (MFI) at 20 nM: 2220 MFI
Anti-Human Fc (MFI) at 100 nM: 4260 MFI
fold change vs WT CD80 @20 nM: 3.3 fold
B2: CD80_229-Fc (Fc fusion)
chain: B1 chain with S10E, V11Y, M47V, M68V, A71G, L85E, P87Y
notes: also called V11Y, M47V, A71G, L85E

Anti-Human Fc (MFI) at 0.8 nM: 647 MFI
Anti-Human Fc (MFI) at 4 nM: 653 MFI
Anti-Human Fc (MFI) at 20 nM: 683 MFI
Anti-Human Fc (MFI) at 100 nM: 753 MFI
fold change vs WT CD80 @20 nM: 1 fold
B3: CD80_222-Fc (Fc fusion)
chain: B1 chain with S10E, E35D, D46Q, M68V, L85E, P87Y
notes: also called E35D, D46Q, L85E

Anti-Human Fc (MFI) at 0.8 nM: 833 MFI
Anti-Human Fc (MFI) at 4 nM: 1110 MFI
Anti-Human Fc (MFI) at 20 nM: 1620 MFI
Anti-Human Fc (MFI) at 100 nM: 2110 MFI
fold change vs WT CD80 @20 nM: 2.4 fold
B4: CD80_230-Fc (Fc fusion)
chain: B1 chain with S10G, Q27F, D46N, M68V, A71G, P87Y, D90G
notes: also called E10G, Q27F, D46N, A71G, D90G

Anti-Human Fc (MFI) at 0.8 nM: 764 MFI
Anti-Human Fc (MFI) at 4 nM: 856 MFI
Anti-Human Fc (MFI) at 20 nM: 955 MFI
Anti-Human Fc (MFI) at 100 nM: 1060 MFI
fold change vs WT CD80 @20 nM: 1.4 fold
B5: CD80_224-Fc (Fc fusion)
chain: B1 chain with K9N, S10E, V11W, M47L, M68T, R73T, P87N
notes: also called K9N, V11W, M47L, V68T, R73T, Y87N

Anti-Human Fc (MFI) at 0.8 nM: 698 MFI
Anti-Human Fc (MFI) at 4 nM: 734 MFI
Anti-Human Fc (MFI) at 20 nM: 948 MFI
Anti-Human Fc (MFI) at 100 nM: 1510 MFI
fold change vs WT CD80 @20 nM: 1.4 fold
B6: CD80_212-Fc (Fc fusion)
chain: B1 chain with K9R, S10A, E35G, M68T, P87Y, T101K
notes: also called K9R, E10A, E35G, V68T, T101K

Anti-Human Fc (MFI) at 0.8 nM: 922 MFI
Anti-Human Fc (MFI) at 4 nM: 1550 MFI
Anti-Human Fc (MFI) at 20 nM: 3830 MFI
Anti-Human Fc (MFI) at 100 nM: 7020 MFI
fold change vs WT CD80 @20 nM: 5.6 fold
B7: CD80_211-Fc (Fc fusion)
chain: B1 chain with S10E, V11Y, T28R, E35G, M47L, M68V, A71G, P87Y
notes: also called V11Y, T28R, E35G, M47L, A71G

Anti-Human Fc (MFI) at 0.8 nM: 995 MFI
Anti-Human Fc (MFI) at 4 nM: 1990 MFI
Anti-Human Fc (MFI) at 20 nM: 5240 MFI
Anti-Human Fc (MFI) at 100 nM: 8940 MFI
fold change vs WT CD80 @20 nM: 7.7 fold
B8: CD80_235-Fc (Fc fusion)
chain: B1 chain with S10E, V11Y, M47L, M68V, A71G, P87Y
notes: also called V11Y, M47L, A71G

Anti-Human Fc (MFI) at 0.8 nM: 640 MFI
Anti-Human Fc (MFI) at 4 nM: 706 MFI
Anti-Human Fc (MFI) at 20 nM: 759 MFI
Anti-Human Fc (MFI) at 100 nM: 834 MFI
fold change vs WT CD80 @20 nM: 1.1 fold
B9: CD80_217-Fc (Fc fusion)
chain: B1 chain with K9N, S10G, M68V, P87K, T101Q
notes: also called K9N, E10G, Y87K, T101Q

Anti-Human Fc (MFI) at 0.8 nM: 863 MFI
Anti-Human Fc (MFI) at 4 nM: 1220 MFI
Anti-Human Fc (MFI) at 20 nM: 2190 MFI
Anti-Human Fc (MFI) at 100 nM: 4380 MFI
fold change vs WT CD80 @20 nM: 3.2 fold
B10: CD80_239-Fc (Fc fusion)
chain: B1 chain with S10E, V11Y, T28Y, D46E, M47V, M68V, P87Y
notes: also called V11Y, T28Y, D46E, M47V

Anti-Human Fc (MFI) at 0.8 nM: 596 MFI
Anti-Human Fc (MFI) at 4 nM: 702 MFI
Anti-Human Fc (MFI) at 20 nM: 740 MFI
Anti-Human Fc (MFI) at 100 nM: 797 MFI
fold change vs WT CD80 @20 nM: 1.1 fold
B11: CD80_218-Fc (Fc fusion)
chain: B1 chain with S10E, V11W, T28Y, D46V, M68T, R73T, P87N
notes: also called V11W, T28Y, D46V, V68T, R73T, Y87N

Anti-Human Fc (MFI) at 0.8 nM: 688 MFI
Anti-Human Fc (MFI) at 4 nM: 630 MFI
Anti-Human Fc (MFI) at 20 nM: 630 MFI
Anti-Human Fc (MFI) at 100 nM: 640 MFI
fold change vs WT CD80 @20 nM: 0.9 fold
B12: CD80_210-Fc (Fc fusion)
chain: B1 chain with E7N, S10E, E35D, F59S, M68V, P87Y
notes: also called E7N, E35D, F59S

Anti-Human Fc (MFI) at 0.8 nM: 635 MFI
Anti-Human Fc (MFI) at 4 nM: 621 MFI
Anti-Human Fc (MFI) at 20 nM: 622 MFI
Anti-Human Fc (MFI) at 100 nM: 698 MFI
fold change vs WT CD80 @20 nM: 0.9 fold
B13: CD80_220-Fc (Fc fusion)
chain: B1 chain with S10E, H18F, T28V, M47L, M68S, P87Y
notes: also called H18F, T28V, M47L, V68S

Anti-Human Fc (MFI) at 0.8 nM: 636 MFI
Anti-Human Fc (MFI) at 4 nM: 668 MFI
Anti-Human Fc (MFI) at 20 nM: 786 MFI
Anti-Human Fc (MFI) at 100 nM: 975 MFI
fold change vs WT CD80 @20 nM: 1.2 fold
B14: CD80_216-Fc (Fc fusion)
chain: B1 chain with S10E, V11W, T28Y, D46V, M68V, R73E, P87Y, F92L
notes: also called V11W, T28Y, D46V, R73E, F92L

Anti-Human Fc (MFI) at 0.8 nM: 1500 MFI
Anti-Human Fc (MFI) at 4 nM: 3210 MFI
Anti-Human Fc (MFI) at 20 nM: 5150 MFI
Anti-Human Fc (MFI) at 100 nM: 6480 MFI
fold change vs WT CD80 @20 nM: 7.5 fold
B15: CD80_241-Fc (Fc fusion)
chain: B1 chain with V11F, T28Y, M47L, M68V, P87Y
notes: also called E10S, V11F, T28Y, M47L
